Measured values reported in PubChem BioAssay AID1458 (National Center for Advancing Translational Sciences (NCATS), 2008).
Out of some 210,000 compounds screened, about 5,900 (2.8%) were called active. Inconclusive results, whose numbers are uncertain, are shown with a selection of clear calls. Calls come from the whole dose curve; as a rule, active = well fitted activation curve with a large enough effect; inconclusive = small, poorly fitted or top-dose-only effect; inactive = no such curve, though single readings can be large or run the other way. Potencies beside an inconclusive call are fits to weak or partial responses and may not hold up.

Test: qHTS Assay for Enhancers of SMN2 Splice Variant Expression; note: nearly all actives have a fitted effect of over 55% in size
Details: HEK293 SMN2-luciferase splicing reporter, luminescence, 30-36 h; series mostly up to 46.1 µM
Method in brief: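 HEK293 cells carry an SMN2 […]–luciferase reporter in which exon 7 inclusion puts luciferase in frame. Cells were plated 10-12 h before compound addition, then incubated 30-36 h at 37C. ONE-Glo luminescence was read; sodium butyrate at 4.5 mM final served as control.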
Potency is the fitted concentration of half-maximal effect; tags give direction and shape of the fitted curve.

| SMILES | Potency |
| --- | --- |
| O=C(CN1CCN(Cc2ccc(Cl)cc2)CC1)N/N=C/C=C/c1ccccc1[N+](=O)[O-] | inactive |
| Cc1ccc(N2CC(C(=O)NCc3cccnc3)CC2=O)cc1 (stereo unspecified) | inconclusive: 5.01 µM [activator, partial curve] |
| CN(C)c1ccc(NC(=O)Cn2nnc3sc4c(c3c2=O)CCC(C(C)(C)C)C4)cc1 (stereo unspecified) | inconclusive: 35.5 µM [activator, single point] |
| O=C1c2ccccc2C(=O)N1Cc1ccc2c(c1)OCO2 | inconclusive: 0.794 µM [activator, full curve, poor fit] |
| Cn1c(C(=O)NCC2CCCO2)cc2c(=O)n(C)c3ccccc3c21 (stereo unspecified) | inconclusive: 35.5 µM [activator, single point] |
| CC1CCCCN1S(=O)(=O)c1ccc(C(=O)Nc2sccc2C(N)=O)cc1 (stereo unspecified) | active: 20 µM |
| O=C(NCCc1ccccc1)c1cc(-c2ccco2)on1 | active: 10 µM |
| CCCc1nnc(NC(=O)CCC(=O)NC2CCCc3ccccc32)s1 (stereo unspecified) | inconclusive: 11.2 µM [activator, partial curve] |
| Clc1ccc(CSc2snnc2-c2ccccc2)c(Cl)c1 | inconclusive: 20 µM [activator, partial curve, poor fit] |
| COCCNC(=O)CCCn1c(SCC(=O)c2ccc(Br)cc2)nc2c(sc3ccccc32)c1=O | inconclusive: 0.708 µM [activator, single point] |
| O=S(=O)(NCC(Nc1ccc(Cl)cc1)c1ccccc1)c1ccc(Cl)cc1 (stereo unspecified) | inconclusive: 0.794 µM [activator, single point] |
| COc1ccc(Cc2nn3c(-c4cc(OC)c(OC)c(OC)c4)nnc3s2)cc1 | inconclusive: 17.8 µM [activator, single point] |
| CC1=C(C(=O)Nc2cc(C)ccn2)C(c2ccc(C)cc2)C2=C(CCCC2=O)N1 (stereo unspecified) | active: 10 µM |
| Cc1ccc(C(=O)N/N=C\c2c(C)nn(-c3ccccc3)c2Cl)cn1 | inconclusive: 35.5 µM [activator, single point] |
| CC(=O)c1cccc(Nc2ccc(-c3ccccc3F)nn2)c1 | active: 11.2 µM |
| Cc1ccc(/C=C(\C#N)C(=O)Nc2cccc(Cl)c2)o1 | inconclusive: 10 µM [activator, partial curve] |
| CC1CC(C)CN(CCCNC(=O)CCNC(=O)Cn2ccc3ccccc3c2=O)C1 (stereo unspecified) | inactive |
| O=c1[nH]c(C(Cl)Cl)nc2sc3c(c12)CCN(Cc1ccccc1)C3 | inactive |
| O=C(Cc1cccc2ccccc12)Nc1ccccc1C(=O)O | inconclusive: 35.5 µM [activator, single point] |
| CCN(CC)c1ccc(/C=N/n2nnnc2N)c(O)c1 | inconclusive: 10 µM [activator, partial curve] |
| O=C(O)c1cc([N+](=O)[O-])ccc1C(=O)Nc1ccccc1 | inactive |
| COC(=O)c1ccc(NC(=O)CN2C(=O)CSC2=O)cc1 | inactive |
| C/C(=N\N=C\c1ccccc1F)c1nnn(-c2nonc2N)c1C | inconclusive: 35.5 µM [activator, single point] |

| SMILES | Potency |
| --- | --- |
| Cc1ccc(Nc2nc(Oc3ccc(OCc4ccccc4)nn3)nc(N3CCOCC3)n2)cc1 | inconclusive: 35.5 µM [activator, partial curve, poor fit] |
| Fc1ccc(-n2cc(-c3ccccc3)c3c(N4CCOCC4)ncnc32)cc1 | inactive |
| O=C(NCc1ccco1)c1ccc(S(=O)(=O)c2cccc(S(=O)(=O)N3CCOCC3)c2)cc1 | inconclusive: 6.31 µM [activator, partial curve, poor fit] |
| CC(=O)CCc1c[nH]c2c(C(=O)O)cccc12 | inconclusive: 20 µM [activator, partial curve, poor fit] |
| CC1(C)Cc2c(sc3nc4n(c(=N)c23)CCC4)CO1 | inconclusive: 15.8 µM [activator, partial curve] |
| Cc1ccc(-n2nnnc2-c2cnc3ccc(Cl)cc3c2-c2ccccc2)cc1 | inactive |
| Cc1ccc(N/C=C2/Sc3ccccc3NC2=O)cc1 | inconclusive: 31.6 µM [activator, single point] |
| COc1ccccc1N1CCN(CC(=O)Nc2cccc(F)c2)CC1 | inconclusive: 31.6 µM [activator, single point] |
| NC(=S)NNC(=O)[C@@H]1CCCC[C@@H]1C(=O)O | inactive |
| [N-]=[N+]=CC(=O)C(Cc1ccccc1)N1C(=O)c2ccccc2C1=O (stereo unspecified) | inconclusive: 5.01 µM [activator, single point] |
| CC1(C)C[C@](C)(C(=O)c2ccccc2)C=C1c1ccccc1 | inactive |
| CCOc1ccc(-c2ccc(SCC(=O)Nc3nnc(C)s3)nn2)cc1 | inconclusive: 3.16 µM [activator, single point] |
| CCCCC(=O)Nc1nnc(-c2ccco2)o1 | inactive |
| CCN1/C(=C2\C(=O)N(C)C(=S)N2C)C=Cc2cc(OC)ccc21 | inactive |
| S=C(NCCSCc1ccccc1Cl)Nc1ccccc1 | inconclusive: 0.891 µM [activator, partial curve] |
| CCC(C)(C(=O)NC1CCCCC1)N(C(=O)CC1NC(=O)NC1=O)c1c(C)n(C)n(-c2ccccc2)c1=O (stereo unspecified) | inactive |
| CCN1CCN(c2cc(C)c3cc(NC(=S)N4CC(C)CC(C)C4)ccc3n2)CC1 (stereo unspecified) | inconclusive: 31.6 µM [activator, single point] |
| COc1ccc(CN2C(=O)C(NC(=O)c3ccccc3C)(C(F)(F)F)N=C2c2ccccc2)cc1 (stereo unspecified) | inconclusive: 20 µM [activator, single point] |
| COc1cc(C2C(C(=O)N3CCOCC3)=C(C)NC3=C2C(=O)CCC3)ccc1OC(C)=O (stereo unspecified) | inconclusive: 3.98 µM [activator, full curve, poor fit] |
| O=C(Nc1ccc(F)cc1F)c1noc2c1CCc1ccccc1-2 | active: 11.2 µM |
| CC1(C)C[C@@H]2C(=O)CCC3O[C@@]3(C)CCC21 (stereo partly specified) | inactive |
| CCN(CC)S(=O)(=O)c1cc(C(=O)O)ccc1Cl | inconclusive: 1.12 µM [activator, full curve] |
| O=C(c1cc([N+](=O)[O-])ccc1Cl)N1c2ccccc2Sc2ccccc21 | inconclusive: 5.62 µM [activator, single point] |
